The values that follow come from patent USRE49949E1, “Reducing risk of contracting clostridium-difficile associated disease” (The Board of Regents of the Nevada System of Higher …, priority 2012, dated 2024).

The first experiment relates to C. difficile spores. The experiment is described as follows: Inhibition of C. difficile spore germination by amino acid and taurocholate analogs. The experiment is classed as cell-based, Clostridium difficile strain 630. To be noted: in the presence of taurocholate and glycine (D-alanine: L-alanine and taurocholate).
As to `C[N+](C)(C)CC(=O)O` [Compound A13, betaine, reference compound], the “inhibition of spore germination by amino acid analog” value (from here on “inhibition … by amino acid analog”) was “neither activate nor inhibit”.

Regarding `CN(C)CC(=O)O` [Compound A12, N,N-dimethylglycine, reference compound], the “inhibition … by amino acid analog” value is “neither activate nor inhibit”.

Regarding `CNCC(=O)O` [Compound A11, sarcosine, reference compound], the “inhibition … by amino acid analog” value is “neither activate nor inhibit”.

As to `CCOC(=O)CN` [Compound A06, glycine ethyl ester, reference compound], the “inhibition … by amino acid analog” value is “unable to activate or inhibit”.

The experiment is the same for the next values; noted with them: spores incubated with bile salt analogs 15 min prior to 6 mM taurocholate and 12 mM glycine; NA = no change in absorbance after 90 minutes; read-out: IC50 (stdev).
What is called IC50 is the midpoint of a concentration-inhibition curve. Regarding `C[C@H](CCC(=O)NCCCCC(=O)O)[C@H]1CC[C@H]2[C@@H]3[C@H](O)C[C@@H]4C[C@H](O)CC[C@]4(C)[C@H]3CC[C@]12C` [Compound 61], the IC50 stood at 640 µM.

Turning to `COC(=O)CC[C@@H](C)[C@H]1CC[C@H]2[C@@H]3CC[C@@H]4C[C@@H](O)CC[C@]4(C)[C@H]3CC[C@]12C` [Compound 91], the IC50 amounted to 1300 µM.

`C[C@H](CCC(=O)Nc1cccc(C(=O)O)c1)[C@H]1CC[C@H]2[C@@H]3[C@H](O)C[C@@H]4C[C@H](O)CC[C@]4(C)[C@H]3C[C@H](O)[C@]12C` [Compound 23]: the IC50 came out at 3100 µM.

Take `C[C@H](CCC(=O)O)[C@H]1CC[C@H]2[C@@H]3CC[C@@H]4C[C@@H](O)CC[C@]4(C)[C@H]3C[C@H](O)[C@]12C` [Compound 84]: the IC50 is 780 µM.

Turning to `Cc1ccc(NC(=O)CC[C@@H](C)[C@H]2CC[C@H]3[C@@H]4[C@H](O)C[C@@H]5C[C@H](O)CC[C@]5(C)[C@H]4CC[C@]23C)cc1C(=O)O` [Compound 71], the concentration for half-maximal inhibition (IC50) came to 92 µM.

With `C[C@H](CCC(=O)NCCCCCC(=O)O)[C@H]1CC[C@H]2[C@@H]3[C@H](O)C[C@@H]4C[C@H](O)CC[C@]4(C)[C@H]3CC[C@]12C` [Compound 63], the IC50 amounted to 1100 µM.

Turning to `C[C@H](CCC(=O)O)[C@H]1CC[C@H]2[C@@H]3CC[C@@H]4C[C@H](O)CC[C@]4(C)[C@H]3C[C@H](O)[C@]12C` [Compound 82], the IC50 is 190 µM.

In the case of `Cc1cc(C)c(S(=O)(=O)O)cc1NC(=O)CC[C@@H](C)[C@H]1CC[C@H]2[C@@H]3[C@H](O)C[C@@H]4C[C@H](O)CC[C@]4(C)[C@H]3C[C@H](O)[C@]12C` [Compound 40], the IC50 worked out at 5600 µM.

`C[C@H](CCC(=O)NC1CCC(C(=O)O)C1)[C@H]1CC[C@H]2[C@@H]3[C@H](O)C[C@@H]4C[C@H](O)CC[C@]4(C)[C@H]3C[C@H](O)[C@]12C` (stereo partly drawn) [Compound 26]: the IC50 was 470 µM.

As to `COC(=O)C[C@@H](C)[C@H]1CC[C@H]2[C@@H]3[C@H](O)C[C@@H]4C[C@H](O)CC[C@]4(C)[C@H]3C[C@H](O)[C@]12C` [Compound 78], the IC50 was determined as 150 µM.

`CCOC(=O)CC[C@@H](C)[C@H]1CC[C@H]2[C@@H]3[C@H](O)C[C@@H]4C[C@H](O)CC[C@]4(C)[C@H]3C[C@H](O)[C@]12C` [Compound 80]: the IC50 amounted to 8.2 µM.

On to `COC(=O)[C@@H](C)[C@H]1CC[C@H]2[C@@H]3[C@H](O)C[C@@H]4C[C@H](O)CC[C@]4(C)[C@H]3C[C@H](O)[C@]12C` [Compound 79], for which the IC50 worked out at 660 µM.

As for `C[C@H](CCC(=O)Nc1ccccc1)[C@H]1CC[C@H]2[C@@H]3[C@H](O)C[C@@H]4C[C@H](O)CC[C@]4(C)[C@H]3C[C@H](O)[C@]12C` [Compound 21], the half-inhibitory concentration (IC50) worked out at 270 µM.

On to `C[C@H](CCC(=O)NCCCCC(=O)O)[C@H]1CC[C@H]2[C@@H]3[C@H](O)C[C@@H]4C[C@H](O)CC[C@]4(C)[C@H]3C[C@H](O)[C@]12C` [Compound 14], for which the IC50 was found to be 5300 µM.

On to `COC(=O)CC[C@@H](C)[C@H]1CC[C@H]2[C@@H]3C[C@H](O)[C@@H]4C[C@H](O)CC[C@]4(C)[C@H]3CC[C@]12C` [Compound 88], for which the IC50 came to 37 µM.

In the case of `COC(=O)CC[C@@H](C)[C@H]1CC[C@H]2[C@@H]3CC[C@@H]4C[C@H](O)CC[C@]4(C)[C@H]3C[C@H](O)[C@]12C` [Compound 85], the IC50 was 97 µM.

With `C[C@H](CCC(=O)O)[C@H]1CC[C@H]2[C@@H]3C[C@H](O)[C@@H]4C[C@H](O)CC[C@]4(C)[C@H]3CC[C@]12C` [Compound 87], the IC50 was 1240 µM.

`Cc1ccc(NC(=O)CC[C@@H](C)[C@H]2CC[C@H]3[C@@H]4[C@H](O)C[C@@H]5C[C@H](O)CC[C@]5(C)[C@H]4C[C@H](O)[C@]23C)cc1C(=O)O` [Compound 39]: the half-inhibitory concentration (IC50) turned out to be 11000 µM.

As to `C[C@H](CCC(=O)Nc1cccc(N)c1)[C@H]1CC[C@H]2[C@@H]3[C@H](O)C[C@@H]4C[C@H](O)CC[C@]4(C)[C@H]3C[C@H](O)[C@]12C` [Compound 34], the IC50 amounted to 530 µM.

As to `C[C@H](CCC(=O)Nc1cccc(C(=O)O)c1)[C@H]1CC[C@H]2[C@@H]3[C@H](O)C[C@@H]4C[C@H](O)CC[C@]4(C)[C@H]3CC[C@]12C` [Compound 67], the IC50 came out at 930 µM.

`CC(CCCO)C1CCC2C3C(O)CC4CC(O)CCC4(C)C3CC(O)C12C` (stereo not drawn) [Compound 76]: the IC50 is 330 µM.

Turning to `COC(=O)CC[C@@H](C)[C@H]1CC[C@H]2[C@@H]3[C@H](O)C[C@@H]4C[C@H](O)CC[C@]4(C)[C@H]3C[C@H](O)[C@]12C` [Compound 77], the IC50 was 59 µM.

With `COC(=O)CC[C@@H](C)[C@H]1CC[C@H]2[C@@H]3CC[C@@H]4C[C@H](O)CC[C@]4(C)[C@H]3C[C@@H](O)[C@]12C` [Compound 86], the IC50 is 95 µM.

On to `C[C@H](CCC(=O)NCCC(=O)O)[C@H]1CC[C@H]2[C@@H]3[C@H](O)C[C@@H]4C[C@H](O)CC[C@]4(C)[C@H]3CC[C@]12C` [Compound 60], for which the IC50 was determined as 3900 µM.

For the compound `Cc1cc(C)c(S(=O)(=O)O)cc1NC(=O)CC[C@@H](C)[C@H]1CC[C@H]2[C@@H]3[C@H](O)C[C@@H]4C[C@H](O)CC[C@]4(C)[C@H]3CC[C@]12C` [Compound 72], the IC50 is 920 µM.

Consider `C[C@H](CCC(=O)NCCCCCC(=O)O)[C@H]1CC[C@H]2[C@@H]3[C@H](O)C[C@@H]4C[C@H](O)CC[C@]4(C)[C@H]3C[C@H](O)[C@]12C` [Compound 16], for which the IC50 came to 2300 µM.

For `C[C@H](CCC(=O)Nc1cccc(S(=O)(=O)O)c1)[C@H]1CC[C@H]2[C@@H]3[C@H](O)C[C@@H]4C[C@H](O)CC[C@]4(C)[C@H]3CC[C@]12C` [Compound 65], the IC50 was 6500 µM.

Regarding `C[C@H](CCC(=O)NCCCCCC(=O)NCCCCCC(=O)O)[C@H]1CC[C@H]2[C@@H]3[C@H](O)C[C@@H]4C[C@H](O)CC[C@]4(C)[C@H]3CC[C@]12C` [Compound 64], the IC50 is 8600 µM.

On to `C[C@H](CCC(=O)NCCCCC(=O)NCCCCC(=O)O)[C@H]1CC[C@H]2[C@@H]3[C@H](O)C[C@@H]4C[C@H](O)CC[C@]4(C)[C@H]3CC[C@]12C` [Compound 62], for which the IC50 was 1900 µM.

As to `COC(=O)CC[C@@H](C)[C@H]1CC[C@H]2[C@@H]3CC[C@@H]4CCCC[C@]4(C)[C@H]3C[C@H](O)[C@]12C` [Compound 90], the IC50 was 370 µM.

In the case of `C[C@H](CCC(=O)NCCS(=O)O)[C@H]1CC[C@H]2[C@@H]3[C@H](O)C[C@@H]4C[C@H](O)CC[C@]4(C)[C@H]3CC[C@]12C` [Compound 59], the half-inhibitory concentration (IC50) is 5300 µM.

Take `Cc1cc(NC(=O)CC[C@@H](C)[C@H]2CC[C@H]3[C@@H]4[C@H](O)C[C@@H]5C[C@H](O)CC[C@]5(C)[C@H]4CC[C@]23C)cc(S(=O)(=O)O)c1C` [Compound 73]: the IC50 worked out at 750 µM.
